# Measured values published in PubChem BioAssay AID686979 (National Center for Advancing Translational Sciences (NCATS), 2013).
# Out of some 420,000 compounds screened, about 50,000 (12%) were called active. The shares of active, inactive and inconclusive entries below differ from those in the screen. Calls follow the shape of the dose curve; as a rule, active = well fitted inhibition curve with a large enough effect; inconclusive = small, poorly fitted or top-dose-only effect; inactive = flat fitted curve, though single readings scatter. No potency is given beside an inconclusive call; the fits are too rough.
# Assay: qHTS for Inhibitors of human tyrosyl-DNA phosphodiesterase 1 (TDP1): qHTS in cells in presence of CPT; also: nearly all actives have a fitted effect of over 55% in size
# Details: chicken DT40 Tdp1-/-;hTDP1 cells + 20 nM CPT, ATP luminescence, 48 h; activity change, negative = growth inhibition: at 46.2 µM (top of the series) unless noted
# Outline: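 Cell growth measured by CellTiter-Glo luminescence after a minimum 48 h, 37 C compound exposure with 20 nM CPT in Tdp1-knockout DT40 cells stably expressing hTDP1, seeded 400/well; qHTS titration format.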
# % is scaled to controls: 0 for no effect and ±100 for the full control effect; potency is read from the fitted curve at half-maximal effect; tags tell the direction and shape of the fitted curve.
SMILES,Potency,"activity change, negative = growth inhibition"
CSc1cccc(CN2CCC(Oc3cccc(C(=O)N4CCCC4)c3)CC2)c1,"inconclusive [inhibitor, single point]",–
C=CCc1ccc(OCCOCCOc2ccccc2[N+](=O)[O-])c(OC)c1,"inconclusive [inhibitor, single point]",–
COc1ccc(C(CC(=O)Nc2ccc(C)c(C)c2)N2Cc3ccccc3C2=O)cc1OC (configuration not stated),active: 14.6 µM,–
CC1(C)Cc2cccc(Oc3ccc(S(=O)(=O)N4CCCCC4)cn3)c2O1,"inconclusive [inhibitor, single point]",–
CCN(Cc1ccccc1)C(=O)Cn1c(=O)n(Cc2ccccc2)c(=O)c2c1c1cc(OC)ccc1n2C,inactive,–
CCOc1ccccc1N(CC(=O)OC)S(=O)(=O)c1ccccc1,inactive,–
COc1ccc(-c2csc(NC(=O)CCNC(=O)c3ccco3)n2)cc1OC,"inconclusive [inhibitor, single point]",–
CN(Cc1ccccc1)C(=O)CCC1CCN(C(=O)CC2=CCCCC2)CC1,–,inconclusive: -34.7% [inhibitor]
CCn1c(Nc2ccccc2Cl)nc2ccccc21,inactive,–
O=C(N/N=C/c1ccc(O)cc1O)C(=O)N/N=C/c1ccc(O)cc1O,"inconclusive [inhibitor, single point]",–
O=C(c1ccc(CS(=O)Cc2ccccc2Cl)o1)N1CCN(c2ccccn2)CC1 (configuration not stated),"inconclusive [inhibitor, single point]",–
Cc1ccc2c(=O)cc(CSc3ccccc3)[nH]c2c1C,"inconclusive [inhibitor, single point]",–
COc1ccccc1C(=O)NNC(=S)NC(=O)c1cc(OC)c(OC)c(OC)c1,active: 18.4 µM,–
CC1(C(=O)Nc2ccc3c(c2)OCO3)CCN1C(=O)c1ccccc1 (configuration not stated),inactive,–
CC(C)Cn1c(SCC(=O)c2c(N)n(C)c(=O)n(C)c2=O)nc2ccccc21,"inconclusive [inhibitor, single point]",–
CCC(CC)C(=O)Nc1cc(C)cc(C)c1,inactive,–
CC(C)(C)C(=O)Nc1ccc(/C=C/C(=O)c2ccco2)cc1,"inconclusive [inhibitor, single point]",–
CCCc1cc(Nc2ccccc2OCC)n2ncnc2n1,inactive,–
Cc1ccc(-c2nn(-c3ccccc3)cc2/C=N/O)cc1,inactive,–
COC(=O)[C@H](CCSC)NC(=O)Cn1cc(C)c(=O)[nH]c1=O,inactive,–
CC(=O)c1cccc(S(=O)(=O)NCCc2csc3nc(-c4ccc(F)cc4)nn23)c1,"inconclusive [inhibitor, single point]",–
Cc1ccccc1CNC(=O)Cc1ccccc1[N+](=O)[O-],inactive,–
Nc1c(C(=O)Nc2ccccc2)sc2nc3c(c(-c4ccco4)c12)CCC3,active: 8.2 µM,–
O=[N+]([O-])c1ccc(N2CCN(C(=S)Nc3ccc(F)cc3F)CC2)cc1,active: 6.51 µM,–

SMILES,Potency,"activity change, negative = growth inhibition"
CC(C)c1ccc(C(=O)N2CCCC(c3cc(C(=O)NCc4ccccc4)no3)C2)cc1 (configuration not stated),active: 13 µM,–
CC(C)OCCCNC(=O)Cn1nc(-c2ccccc2)ccc1=O,"inconclusive [inhibitor, full curve, poor fit]",–
CCOC(=O)C1(Cc2cccc(OC)c2)CCN(Cc2cccn2-c2nccs2)CC1,"inconclusive [inhibitor, single point]",–
C[C@@H]1CN([C@H](C)CO)S(=O)(=O)c2ccc(Br)cc2O[C@@H]1CN(C)C(=O)Nc1ccc(C(F)(F)F)cc1,active: 20.6 µM,–
O=S(=O)(Nc1ccc(S(=O)(=O)N2CCOCC2)cc1)c1ccccc1,inactive,–
Cc1cccc(N(CC(=O)Nc2ccc(Br)cc2)S(C)(=O)=O)c1C,"inconclusive [inhibitor, single point]",–
Cc1ccc(CN2CC(C(=O)Nc3ccc(C)c(S(=O)(=O)N4CCCCC4)c3)CC2=O)cc1 (configuration not stated),"inconclusive [inhibitor, single point]",–
O=C(Nc1ccc(OC(F)F)cc1)Nc1cccc(C(F)(F)F)c1,active: 3.66 µM,–
O=C(Nc1ccc(CN2CCOCC2)cc1)c1ccc(-c2cc(Cl)ccc2Cl)o1,"inconclusive [inhibitor, single point]",–
COCC#Cc1ccc2c(c1)O[C@@H](CN(C)C(=O)Nc1ccc(OC)cc1)[C@H](C)CN([C@H](C)CO)S2(=O)=O,inactive,–
COc1ccc(-c2cc(C(F)(F)F)n3nc(C(=O)NCc4ccco4)c(Cl)c3n2)cc1,–,inconclusive: -31.9% [inhibitor]
C=CCN=C1SC(C)(C)C(=O)N1S(=O)(=O)c1ccc(C)cc1,"inconclusive [inhibitor, single point]",–
COc1ccc(/C=N/NC(=O)c2cccnc2)cc1CN1CCN(c2ccc(F)cc2)CC1,inactive,–
Cn1c(-c2ccccc2)cc2onc(-c3ccccc3)c2c1=O,active: 14.6 µM,–
CC(C)CN(Cc1cc(=O)oc2cc3c(cc12)CCCC3)CC(C)C,"inconclusive [inhibitor, single point]",–
COc1ccc(C(=O)NCc2ccc3c(c2)CCN3C(=O)c2ccncc2)cc1,"inconclusive [inhibitor, single point]",–
CCOC(=O)c1cc(-c2ccccc2C)nn1CC1CC(c2ccc(OC)cc2)=NO1 (configuration not stated),"inconclusive [inhibitor, single point]",–
O=C(CSCc1ccccc1)N1CCN(Cc2ccc3c(c2)OCO3)CC1,"inconclusive [inhibitor, single point]",–
O=C(c1ccco1)N1CCN(Cc2nc3ccccc3[nH]2)CC1,inactive,–
Cc1cc2cc3n(c2nn1)N=C(Cl)CC3,"inconclusive [inhibitor, single point]",–
Fc1ccc(-n2c(CN3CCCCC3)n[nH]c2=S)cc1,inactive,–
O=C(C1CCCCC1)N1CCC2CC1c1cc(Cl)ccc12 (configuration not stated),"inconclusive [inhibitor, single point]",–
O=S(=O)(c1ccc2ccccc2c1)n1nc(-c2ccco2)nc1NCc1ccc(F)cc1,inactive,–
